The whole screen tested about 39,000 compounds, of which about 220 (0.56%) showed activity. This is one part of the list.
The compounds below were run on Escherichia coli K-12 BW25113 (assay: relative growth (OD600 normalised to plate interquartile mean) (fraction); higher = less growth inhibition, active = 0.2 or less). Conditions: 50 µM; LB; incubation time: overnight (16-24 h).
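Also: static incubation at 37 °C against the wild-type strain, values averaged over two biological replicates.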

SMILES | relative growth
COc1ccc(NC(=O)N(C)C[C@H]2OCCCC[C@H](C)Oc3ccc(NC(=O)Cc4ccccc4)cc3C(=O)N([C@@H](C)CO)C[C@@H]2C)cc1 | inactive: 0.993
CC(C)NC(=O)N(C)C[C@H]1Oc2c(NS(=O)(=O)c3ccc(F)cc3)cccc2C(=O)N([C@H](C)CO)C[C@@H]1C | inactive: 0.876
O=C(Nc1ccccc1)Nc1ccccc1 | inactive: 0.904
C[C@H](CO)N1C[C@H](C)[C@H](CN(C)S(C)(=O)=O)Oc2c(NC(=O)NC3CCCCC3)cccc2C1=O | inactive: 0.97
C[C@H]1CN([C@@H](C)CO)C(=O)c2cccc(NC(=O)c3ccncc3)c2O[C@@H]1CN(C)C(=O)Nc1ccc2c(c1)OCO2 | inactive: 0.997
COc1cccc(CN(C)C[C@@H]2OCc3ccccc3-c3c(n(C)c4ccccc34)C(=O)N([C@@H](C)CO)C[C@@H]2C)c1 | inactive: 0.975
CCCC#Cc1cnc2c(c1)C(=O)N([C@H](C)CO)C[C@H](C)[C@H](CN(C)C(=O)c1ccc3c(c1)OCO3)O2 | inactive: 0.989
C[C@H]1CCCCO[C@H](CN(C)Cc2ccc(C(F)(F)F)cc2)[C@@H](C)CN([C@@H](C)CO)C(=O)c2cc(NC(=O)c3ccccc3)ccc2O1 | inactive: 1.01
C[C@@H]1CN([C@@H](C)CO)C(=O)c2cccc(N(C)C)c2O[C@@H]1CN(C)S(C)(=O)=O | inactive: 0.957
CC(C)(C)C(=O)C[C@@H](Nc1ccccc1)c1ccc(Cl)cc1 | inactive: 1.03
C[C@@H]1CCCCO[C@H](CN(C)C(=O)CCC(F)(F)F)[C@H](C)CN([C@@H](C)CO)C(=O)c2cc(NC(=O)Nc3ccccc3)ccc2O1 | inactive: 1.02
COCCNC(=O)C[C@@H]1CC[C@@H]2[C@H](COc3ccc(NS(=O)(=O)c4ccc(Cl)cc4)cc3C(=O)N2C)O1 | inactive: 0.982
CNC(=O)C[C@@H]1CC[C@@H]2[C@H](COC[C@H](O)CN2C(=O)Nc2ccc3c(c2)OCO3)O1 | inactive: 0.991
C[C@H]1CN([C@@H](C)CO)S(=O)(=O)c2ccc(C#CC3(O)CCCC3)cc2O[C@@H]1CN(C)C(=O)c1ccccc1 | inactive: 0.983
O=C(C[C@H]1C[C@H]2c3cc(NC(=O)Nc4ccc(C(F)(F)F)cc4)ccc3O[C@H]2[C@@H](CO)O1)NC1CCCCC1 | inactive: 1.01
O=C(C[C@H]1C[C@H]2c3cc(NC(=O)c4ccc5c(c4)OCO5)ccc3O[C@H]2[C@@H](CO)O1)NCc1ccc(Oc2ccccc2)cc1 | inactive: 1
COc1cc(OC)cc(C(=O)N(Cc2ccco2)Cc2cc3ccc(SC)cc3nc2-c2cccc(OC)c2)c1 | inactive: 1.04
O=C(N[C@@H]1CC[C@H](CC(=O)N2CCOCC2)O[C@H]1CO)c1ccc2c(c1)OCO2 | inactive: 0.998
Cc1noc(C)c1NC(=O)Nc1ccc2c(c1)C(=O)N([C@H](C)CO)C[C@H](C)[C@@H](CN(C)C(=O)Nc1cccc3ccccc13)OCCCC[C@H](C)O2 | inactive: 1.03

SMILES | relative growth
Cc1noc(C)c1S(=O)(=O)Nc1ccc2c(c1)CC(=O)N([C@H](C)CO)C[C@@H](C)[C@H](CN(C)Cc1ccncc1)O2 | inactive: 0.995
C[C@H]1CN([C@@H](C)CO)C(=O)c2cc(C#Cc3ccccc3F)cnc2O[C@@H]1CN(C)C(=O)Cc1cccnc1 | inactive: 0.987
C[C@@H]1CCCCO[C@H](CN(C)Cc2ccccc2)[C@@H](C)CN([C@H](C)CO)C(=O)c2cc(NC(=O)Nc3ccc(C(F)(F)F)cc3)ccc2O1 | inactive: 1.01
C[C@@H]1CN([C@@H](C)CO)C(=O)Cc2cc(NS(=O)(=O)c3cn(C)cn3)ccc2O[C@@H]1CN(C)Cc1ccncc1 | inactive: 0.996
C[C@H](CO)N1C[C@H](C)[C@H](CN(C)C(=O)c2ccccc2)OCCCC[C@H](C)Oc2ccc(NC(=O)Cc3ccccc3)cc2C1=O | inactive: 0.999
Cc1cc(C(=O)Nc2cccc3c2O[C@@H](CN(C)S(=O)(=O)c2cn(C)cn2)[C@@H](C)CN([C@@H](C)CO)C3=O)n(C)n1 | inactive: 1.02
COc1ccc(S(=O)(=O)N(C)C[C@H]2Oc3ccc(NC(=O)Cc4ccccc4)cc3CC(=O)N([C@H](C)CO)C[C@H]2C)cc1 | inactive: 1.03
COc1ccc(CN(C)C[C@H]2Oc3ccc(NC(=O)CCCN(C)C)cc3C(=O)N([C@H](C)CO)C[C@H]2C)cc1 | inactive: 1
COc1ccc(-c2cc3c(c(CCc4ccccc4)n2)[Si](C(C)C)(C(C)C)O[C@H]3c2ccccc2)cn1 | inactive: 1.01
Cc1ccc2nc(-c3ccncc3)cc(-c3ccccc3)c2c1 | inactive: 1.01
Cc1ccc(S(=O)(=O)Nc2cccc3c2O[C@@H](CN(C)C(=O)Nc2cccc4ccccc24)[C@H](C)CN([C@H](C)CO)C3=O)cc1 | inactive: 1.04
N[C@@H](C(=O)O)[C@@H](O)[C@H](O)[C@H](O)CO | inactive: 0.951
CC(C)NC(=O)Nc1cccc2c1O[C@H](CN(C)Cc1ccc3c(c1)OCO3)[C@@H](C)CN([C@@H](C)CO)C2=O | inactive: 1.01
CCN1CCN(CC(=O)Nc2ccc(-c3cccc4c(=O)cc(N5CCOCC5)oc34)c3sc4ccccc4c23)CC1 | inactive: 0.981
C=CCOC(=O)[C@H]1[C@@H]2C(=O)O[C@@H](c3ccccc3)[C@@H](c3ccccc3)N2[C@@H](c2ccc(OCCOC(=O)[C@H]3C[C@H]4C(=O)N5CCC[C@H]5C(=O)N4[C@H]3c3cccc(OCCO)c3)cc2)[C@]12C(=O)Nc1ccccc12 | inactive: 1.03
O=C(NO)c1cccnc1 | inactive: 1.02
C[C@H]1CCCCO[C@H](CN(C)C(=O)Cc2ccccc2)[C@@H](C)CN([C@@H](C)CO)C(=O)c2cc(NC(=O)Cc3ccccc3)ccc2O1 | inactive: 0.972
C/C(C[P+](c1ccccc1)(c1ccccc1)c1ccccc1)=N\NC(=O)CCCCCCC(=O)Nc1ccccc1O | inactive: 1.02
C[C@@H]1CN([C@@H](C)CO)C(=O)Cc2cc(NC(=O)CCN3CCOCC3)ccc2O[C@@H]1CN(C)Cc1ccccc1 | inactive: 1.02
